# According to the supplement of paper PMC11417369:
# The list shows a part of the results.
# Tested on: PF3D7_0420300 AP2 domain 1 (GST-tagged)
# Assay: gcPBM binding intensity (ln(normalized median fluorescence intensity)); higher = stronger DNA binding
# How it was run: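 The highest Masliner-normalised natural-log median intensity across replicate spots of either probe orientation is reported as binding intensity. GST-tagged P. falciparum DNA-binding domains expressed in E. coli were applied for 1 h to an Agilent 4 × 180k array of primer-extended double-stranded 36-bp intergenic genomic probes plus negative controls, and bound protein was detected with Alexa488 anti-GST antibody and scanned at 488 nm.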
row,Sequence,gcPBM binding intensity (ln)
1,AATCTGATTTGTATATGTACACAAATATTTTTATTT [XGTACX_site5295],9.25
2,TTTAATAATTATTAAAGTACAAAATAAATATTGAAT [XGTACX_site7538],9.19
3,TATAAAAAAATATATATATATATATATATATAAATA [TGCATGCA_negctrl_site22],8.88
4,AACTGTACAATTTTTGTGCACAATAATTATTAATAT [GTGCAC_site9462],9.21
5,ATATTTTTATTTAAACGTACATACACGTTGAAAAGA [XGTACX_site4567],8.99
6,TGCTATATAATATGAGCACACATAAGATTTGGTGTT [CACACA_site8148],9.23
7,TTTTTCTTTTGATGTTGTACATATATATTATATATA [XGTACX_site2754],9.22
8,TTTTCAATTAATAATACACACATGTATATATCATTA [CACACA_site7539],9.35
9,TAATGCATTATTAGAATACACACCATACGCATATTT [CACACA_site289],9.39
10,TGATGTTGTAACAAAAGTACACACACATTTCTATAA [XGTACX_site5837],9.38
11,AATTAGCTATTTAAAAATATATAAAATTTATATATA [CACACA_negctrl_site390],8.77
12,GAAATAGAGAGACACACACACATATATTTATGTATT [CACACA_site7794],9.93
13,ATCATATTGAATATTTAACACACATTTCGCTTAATT [CACACA_site8652],9.63
14,AAAATGTAGAAATGGGTGCACACACATATATAATAT,9.82
15,TATATATATAAAAGTTGTACAGTGTTTTATATAGTT [XGTACX_site7085],9.25
16,TTATGTAAAATCGATACATGCATTAATCATTTTATA [TGCATGCA_site493],9.12
17,TCATATTTCCATAGGAGTACATAAAAAAAATAATAT [XGTACX_site7601],9.15
18,TATGATATGTTATACACACACGTATTTATGAATTGA [CACACA_site7591],9.67
19,ATTTATATTAATGGATAAATAAATGTGTACTTGATA [CACACA_negctrl_site24],9.17
20,TTCTTTATTATATGCACACGTACATATAATATATAT [CACACA_site2018],9.42
21,ATCAACAAAACATACACACACATATAGATTTATATA [CACACA_site7415],10
22,AAAAAAAAAAAACACACACACATATATATATATATA [CACACA_site732],9.75
23,TTTTTTTTTTTTTGCACACACATAATAGGTACAAAT [CACACA_site3577],9.59
24,TTTTTTTTTTTTTTCTCACACATTTAATGATAATAT [CACACA_site5513],9.14
25,CATATTTACTATCACACACACGATATATATAAATAT [CACACA_site1241],9.8
